According to the supplement of paper PMC4967469:
IC50 is the fitted dose that halves viability relative to control wells, and lower means more sensitive; a limit (>, <) means that the fit lies beyond the doses tested. AUC is the area under the same curve over the 256-fold range up to the top dose, as a fraction; values near 1 show little effect. For some assays here: Any top dose called inferred is not printed in the source and was worked back from the curve model. For some assays here: An entry number marks a drug with two screens in the source, which often give different values.

What was measured:
Experiment in all cases: Viability of human cancer cell lines after 72 h of drug (GDSC screen)
Docetaxel = compound: CC(=O)O[C@@]12CO[C@@H]1C[C@H](O)[C@@]1(C)C(=O)[C@H](O)C3=C(C)[C@@H](OC(=O)[C@H](O)[C@@H](NC(=O)OC(C)(C)C)c4ccccc4)C[C@@](O)([C@@H](OC(=O)c4ccccc4)[C@H]21)C3(C)C [Docetaxel]; details: top dose 0.0125 µM
Description: (§1)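 Human cancer cell lines in 384-well plates, medium with 10% serum, drug for 72 h over a 256-fold dose range (nine 2-fold or five 4-fold steps up to the top dose). Adherent lines were fixed and stained with the nucleic acid dye Syto60, suspension lines read with resazurin; signal relative to control wells, capped at 0 and 100%. One two-parameter sigmoid per drug and line, fitted in a mixed model over all curves with the slope shared within a line.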

AMG-706 = compound: CC1(C)CNc2cc(NC(=O)c3cccnc3NCc3ccncc3)ccc21 [AMG-706]; details: top dose 2 µM; top dose inferred
Description: as §1

Cyclopamine = compound: CC1=C2C[C@H]3[C@@H](CC=C4C[C@@H](O)CC[C@@]43C)[C@@H]2CC[C@]12O[C@@H]1C[C@H](C)CN[C@H]1[C@H]2C [Cyclopamine]; details: top dose 16 µM; top dose inferred
Description: as §1

JNK Inhibitor VIII = compound: CCOc1nc(NC(=O)Cc2cc(OC)ccc2OC)cc(N)c1C#N [JNK Inhibitor VIII]; details: top dose 10 µM; top dose inferred
Description: as §1

NSC-207895 = compound: CN1CCN(c2ccc([N+](=O)[O-])c3no[n+]([O-])c23)CC1 [NSC-207895]; details: top dose 20 µM; top dose inferred
Description: as §1

FTI-277 = compound: COC(=O)[C@H](CCSC)NC(=O)c1ccc(NC[C@@H](N)CS)cc1-c1ccccc1 [FTI-277]; details: top dose 1.024 µM; top dose inferred
Description: as §1

YM155 = compound: COCC[n+]1c2c(n(Cc3cnccn3)c1C)C(=O)c1ccccc1C2=O [YM155]; details: top dose 5.12 µM
Description: as §1

OSI-906 = compound: C[C@]1(O)C[C@@H](c2nc(-c3ccc4ccc(-c5ccccc5)nc4c3)c3c(N)nccn32)C1 [OSI-906]; details: top dose 2.56 µM; top dose inferred
Description: as §1

SB-715992 = compound: Cc1ccc(C(=O)N(CCCN)[C@@H](c2nc3cc(Cl)ccc3c(=O)n2Cc2ccccc2)C(C)C)cc1 [SB-715992]; details: top dose 0.128 µM; top dose inferred
Description: as §1

JQ1 = compound: Cc1sc2c(c1C)C(c1ccc(Cl)cc1)=N[C@@H](CC(=O)OC(C)(C)C)c1nnc(C)n1-2 [JQ1]
Description: as §1

Belinostat = compound: O=C(/C=C/c1cccc(S(=O)(=O)Nc2ccccc2)c1)NO [Belinostat]; details: top dose 20 µM; top dose inferred
Description: as §1

CGP-60474 = compound: OCCCNc1cc(-c2ccnc(Nc3cccc(Cl)c3)n2)ccn1 [CGP-60474]; details: top dose 0.256 µM; top dose inferred
Description: as §1

JNJ-26854165 = compound: c1ccc2c(CCNc3ccc(Nc4ccncc4)cc3)c[nH]c2c1 [JNJ-26854165]; details: top dose 10 µM
Description: as §1

[1] = top dose 1 µM, screen: GDSC drug entry 1218, top dose inferred
[2] = top dose 2.56 µM, screen: GDSC drug entry 163

| Cell Line | AUC (Docetaxel) | IC50 (Docetaxel) | AUC (AMG-706) | IC50 (AMG-706) | AUC (Cyclopamine) | IC50 (Cyclopamine) | AUC (JNK Inhibitor VIII) | IC50 (JNK Inhibitor VIII) | AUC (NSC-207895) | IC50 (NSC-207895) | AUC (FTI-277) | IC50 (FTI-277) | AUC (YM155) | IC50 (YM155) | AUC (OSI-906) | IC50 (OSI-906) | AUC (SB-715992) | IC50 (SB-715992) | AUC (JQ1; [1]) | IC50 (JQ1; [1]) | AUC (JQ1; [2]) | IC50 (JQ1; [2]) | AUC (Belinostat) | IC50 (Belinostat) | AUC (CGP-60474) | IC50 (CGP-60474) | AUC (JNJ-26854165) | IC50 (JNJ-26854165) |
| --- | --- | --- | --- | --- | --- | --- | --- | --- | --- | --- | --- | --- | --- | --- | --- | --- | --- | --- | --- | --- | --- | --- | --- | --- | --- | --- | --- | --- |
| JiyoyeP-2003 (Burkitt lymphoma, suspension) | 0.925 | > 12.5 nM | 0.99 | > 2000 nM | 0.96 | > 16000 nM | 0.989 | > 10000 nM | 0.888 | 17800 nM | 0.976 | > 1020 nM | 0.019 | < 20 nM | 0.99 | > 2560 nM | 0.6 | 14.5 nM | 0.91 | > 1000 nM | 0.702 | 544 nM | 0.29 | 349 nM | 0.625 | 33.7 nM | 0.982 | > 10000 nM |
| KARPAS-299 (anaplastic large cell lymphoma, suspension) | 0.905 | 11.9 nM | 0.983 | > 2000 nM | 0.939 | > 16000 nM | 0.984 | > 10000 nM | 0.927 | > 20000 nM | 0.992 | > 1020 nM | 0.02 | < 20 nM | 0.992 | > 2560 nM | 0.856 | 76.6 nM | 0.863 | 635 nM | 0.96 | > 2560 nM | 0.212 | 216 nM | 0.582 | 25.8 nM | 0.973 | > 10000 nM |
| KARPAS-422 (B-cell lymphoma, suspension) | 0.95 | > 12.5 nM | 0.975 | > 2000 nM | 0.914 | > 16000 nM | 0.983 | > 10000 nM | 0.702 | 4570 nM | 0.988 | > 1020 nM | 0.025 | < 20 nM | 0.985 | > 2560 nM | 0.919 | > 128 nM | 0.977 | > 1000 nM | 0.66 | 441 nM | 0.342 | 458 nM | 0.701 | 58.3 nM | 0.975 | > 10000 nM |
| KE-37 (lymphoblastic leukaemia, suspension) | 0.947 | > 12.5 nM | 0.994 | > 2000 nM | 0.928 | 15500 nM | 0.984 | > 10000 nM | 0.895 | 14200 nM | 0.978 | > 1020 nM | 0.012 | < 20 nM | 0.986 | > 2560 nM | 0.437 | 5.6 nM | 0.694 | 188 nM | 0.489 | 150 nM | 0.176 | 187 nM | 0.735 | 61.2 nM | 0.897 | 7220 nM |
| KELLY (neuroblastoma, adherent) | 0.683 | 2.4 nM | 0.968 | > 2000 nM | 0.989 | > 16000 nM | 0.987 | > 10000 nM | 0.852 | 13300 nM | 0.985 | > 1020 nM | 0.177 | 38.5 nM | 0.919 | > 2560 nM | 0.72 | 31.4 nM | 0.988 | > 1000 nM | 0.751 | 776 nM | 0.246 | 253 nM | 0.807 | 117 nM | 0.853 | 6720 nM |
| KM-H2 (Hodgkin lymphoma, suspension) | 0.993 | > 12.5 nM | 0.979 | > 2000 nM | 0.972 | > 16000 nM | 0.982 | > 10000 nM | 0.984 | > 20000 nM | 0.992 | > 1020 nM | 0.988 | > 5120 nM | 0.987 | > 2560 nM | 0.69 | 24.8 nM | 0.823 | 475 nM | 0.896 | 2300 nM | 0.993 | > 20000 nM | 0.87 | 179 nM | 0.954 | > 10000 nM |
| KMOE-2 (acute myeloid leukaemia, suspension) | 0.897 | > 12.5 nM | 0.99 | > 2000 nM | 0.974 | > 16000 nM | 0.982 | > 10000 nM | 0.881 | 17100 nM | 0.977 | > 1020 nM | 0.109 | 21.1 nM | 0.969 | > 2560 nM | 0.884 | 112 nM | 0.764 | 327 nM | 0.743 | 724 nM | 0.344 | 485 nM | 0.952 | > 256 nM | 0.933 | > 10000 nM |
| KU812 (chronic myeloid leukaemia, suspension) | 0.921 | > 12.5 nM | 0.988 | > 2000 nM | 0.871 | 12800 nM | 0.986 | > 10000 nM | 0.606 | 2370 nM | 0.987 | > 1020 nM | 0.021 | < 20 nM | 0.987 | > 2560 nM | 0.521 | 9.07 nM | 0.778 | 368 nM | 0.521 | 182 nM | 0.024 | < 78.1 nM | 0.635 | 36.5 nM | 0.846 | 6370 nM |
